Results: the supplement of paper PMC10338343
± gives the standard deviation. This is a selection; strong and weak results do not stand in their true shares.

The sequences below were run on MIWI (PIWIL1) piRISC loaded with L1MC piRNA (30 nt) (assay: pre-steady-state target cleavage rate (min^-1); MIWI and MILI are mouse PIWI proteins and EfPiwi is from a freshwater sponge; tags in brackets are library labels; higher = faster piRNA-guided slicing of the target). Conditions: guide: L1MC piRNA 5'p-UAACUAAAUACUAUGCAAGCUGUAGGUCCU; auxiliary factor: 500 nM mouse GTSF1.
Experimental: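 Cleave-'n-Seq: a library of target RNAs (target site embedded in constant flanks, ACAGCATTCCGCGTTAGTGATATCCG... 5' flank; DNA-blocked outside the site) at 0.1 nM was incubated with 1 nM active mouse MILI or MIWI piRISC (synthetic 5'-monophosphorylated piRNA guide) with or without 500 nM mouse GTSF1 at 33 °C for 1 min to 16 h. Uncleaved targets were sequenced and normalised to non-target controls, and the pooled three trials were fitted to a burst-and-steady-state model to give the pre-steady-state cleavage rate (min^-1; k3 is constrained to at most 1e-4). Sequence is the target site only; target names encode pairing extent (gX:gY) and contiguous / 1-mismatch / 2-mismatch / bulge geometry. Fits with R² ≤ 0 are excluded.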

Sequence	pre-steady-state target cleavage rate
UCGACCUACAGCUAGCAUAGUUUUUAGUUA	0.376 ± 0.029
UCCACCUACAGCUUGCAUAGUAUAUACUUA	0.211 ± 0.039
UCGACCUUGAGCUUGCAUAGUAUUUAGUAA	0.727 ± 0.074
UCCUGGAUCAGCUUGCAUAGUAUUUAUUUA	0.333 ± 0.037
UCCUGGAUCAGCUUGCAUUGUAUUUAGUUA	0.625 ± 0.038
UGGACCUACAGCUUGCAUAGUAAAUUCAAA	0.147 ± 0.049
UCCUGGAUGAGGAUGCAUAGUAUUUAGUAA	0.0043 ± 0.0037
UGGACCUACAGCUUGCAAAGUAUUUUCAAA	0.13 ± 0.023
UCCUGGUACAGCUUGUAUAGUAUUUAGUUA	0.869 ± 0.041
UCCUGGAUGAGCUUGCAAAGUAUAUAGUUA	0.323 ± 0.037
UCGACCUACAGCUUGCAAAGUAUUUAGAUA	0.544 ± 0.031
AGCACCUACAGCUUGCAUAGAAUUUAGUUA	0.713 ± 0.11
UCCUGCUACAGCUAGCAUAGUAUAUAGUUA	0.535 ± 0.053
UCCUGCUACAGGUUGCAUAGAAUUUAGUUA	0.314 ± 0.034
UGGACCUACAGCUUGCAUAGUAUUUUCUAA	0.183 ± 0.029
UCCUGGAUGUCCUUGCAUAGCAUUUAGUUA	0.0256 ± 0.0057
UCCACCUACACGAUGCAUAGUAUUUUCAAA	0.117 ± 0.018
UCCUGGAUGUCGAAGCAUAGUAUUUAGUUU [g2:g16:cont:t1U]	0.00549 ± 0.0035
UCGACGUACAGCUUGCAUAGUAUUUAGAUA	0.394 ± 0.027
UCCUGGUACAUGCUUGCAUAGUAUUUAGUUA	0.429 ± 0.026
UCCUGCUACAGCUUGCAUAGUAUUAUCUUA	0.252 ± 0.041
UCCACGUACACCUUGCAUAGUAUUUAGUUA	1.13 ± 0.036

Same assay, conditions: guide: L1MC piRNA 5'p-UAACUAAAUACUAUGCAAGCUGUAGGUCCU; auxiliary factor: none (no GTSF1)

Sequence	pre-steady-state target cleavage rate
UCGACCUACAGCUAGCAUAGUUUUUAGUUA	0.0167 ± 0.004
UCCACCUACAGCUUGCAUAGUAUAUACUUA	0.00558 ± 0.0027
UCGACCUUGAGCUUGCAUAGUAUUUAGUAA	0.0295 ± 0.0071
UCCUGGAUCAGCUUGCAUAGUAUUUAUUUA	0.0217 ± 0.0055
UCCUGGAUCAGCUUGCAUUGUAUUUAGUUA	0.0257 ± 0.0063
UCCUGGUACAGCUUGUAUAGUAUUUAGUUA	0.0347 ± 0.0088
UCCUGGAUGAGCUUGCAAAGUAUAUAGUUA	0.0143 ± 0.0049
UCGACCUACAGCUUGCAAAGUAUUUAGAUA	0.0179 ± 0.0044
AGCACCUACAGCUUGCAUAGAAUUUAGUUA	0.0143 ± 0.0045
UCCUGCUACAGCUAGCAUAGUAUAUAGUUA	0.0057 ± 0.0026
UCCUGCUACAGGUUGCAUAGAAUUUAGUUA	0.0168 ± 0.0057
UGGACCUACAGCUUGCAUAGUAUUUUCUAA	0.00653 ± 0.0027
UCCUGGAUGUCCUUGCAUAGCAUUUAGUUA	0.0054 ± 0.0015
UCGACGUACAGCUUGCAUAGUAUUUAGAUA	0.0398 ± 0.0071
UCCUGGUACAUGCUUGCAUAGUAUUUAGUUA	0.0479 ± 0.01
UCCUGCUACAGCUUGCAUAGUAUUAUCUUA	0.00319 ± 0.0023
UCCACGUACACCUUGCAUAGUAUUUAGUUA	0.0578 ± 0.0093
